Measured values as given in publication PMC11760013.
Positions count from the first letter of the chain named. Results are given in words; binding and its absence hold for the method and conditions named. In cells and extracts the contact can be indirect. Some binding calls cover weakened binding; strength is not graded here. For some of these results: Sequences can lack the tags named with a protein.

By UniProt entry, the sequences of proteins in these tests, tags left out. Where a name states a change or a piece, a line headed by the entry shows the natural chain unless it says otherwise. Chains listed by the source or under a name are the forms on record and can include a tag or linker. Residues count along the entry.
UniProt Q9Y2G2: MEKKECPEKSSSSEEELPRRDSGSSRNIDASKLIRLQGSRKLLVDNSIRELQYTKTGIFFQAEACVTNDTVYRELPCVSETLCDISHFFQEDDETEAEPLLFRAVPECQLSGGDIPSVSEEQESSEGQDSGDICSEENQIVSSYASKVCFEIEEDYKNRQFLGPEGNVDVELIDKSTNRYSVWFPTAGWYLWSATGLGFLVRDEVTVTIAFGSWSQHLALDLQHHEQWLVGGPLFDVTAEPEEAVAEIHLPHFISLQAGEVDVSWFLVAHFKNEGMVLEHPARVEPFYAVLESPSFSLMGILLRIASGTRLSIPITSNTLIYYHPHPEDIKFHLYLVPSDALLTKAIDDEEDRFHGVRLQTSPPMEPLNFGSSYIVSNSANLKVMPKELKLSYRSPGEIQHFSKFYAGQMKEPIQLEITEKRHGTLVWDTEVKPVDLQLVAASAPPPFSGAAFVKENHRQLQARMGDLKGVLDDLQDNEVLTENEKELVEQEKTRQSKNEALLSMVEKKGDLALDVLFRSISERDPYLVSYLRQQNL
CARD8^NT, N-terminal Flag tag: residues 1-296 of Q9Y2G2
FIIND of CARD8 (HEK293T construct): residues 161-446 of Q9Y2G2
ZU5 of CARD8 (HEK293T construct): residues 161-296 of Q9Y2G2
UniProt Q86TI2: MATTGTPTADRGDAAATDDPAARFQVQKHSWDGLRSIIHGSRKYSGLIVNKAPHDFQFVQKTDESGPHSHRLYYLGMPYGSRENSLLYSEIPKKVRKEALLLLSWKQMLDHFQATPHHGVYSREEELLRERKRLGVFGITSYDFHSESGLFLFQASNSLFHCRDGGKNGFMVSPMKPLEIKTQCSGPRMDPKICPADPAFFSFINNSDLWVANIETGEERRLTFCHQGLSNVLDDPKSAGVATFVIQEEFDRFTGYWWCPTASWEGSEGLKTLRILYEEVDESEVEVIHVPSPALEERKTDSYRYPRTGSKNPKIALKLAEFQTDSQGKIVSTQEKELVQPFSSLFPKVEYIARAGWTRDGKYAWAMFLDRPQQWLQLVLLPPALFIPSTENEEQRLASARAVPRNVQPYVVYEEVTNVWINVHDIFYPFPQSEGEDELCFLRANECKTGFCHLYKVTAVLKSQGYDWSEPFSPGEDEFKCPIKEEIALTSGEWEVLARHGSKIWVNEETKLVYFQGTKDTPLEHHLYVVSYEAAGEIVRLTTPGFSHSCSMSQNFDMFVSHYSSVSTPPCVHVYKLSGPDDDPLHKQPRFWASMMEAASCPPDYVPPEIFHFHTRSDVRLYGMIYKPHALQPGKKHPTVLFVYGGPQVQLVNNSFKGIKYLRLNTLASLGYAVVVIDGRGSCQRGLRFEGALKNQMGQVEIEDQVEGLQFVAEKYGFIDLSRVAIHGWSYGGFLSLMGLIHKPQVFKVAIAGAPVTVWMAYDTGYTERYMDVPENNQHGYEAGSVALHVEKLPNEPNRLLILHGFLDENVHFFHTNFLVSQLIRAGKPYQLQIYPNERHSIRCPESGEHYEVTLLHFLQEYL

T1: cleavage-resistant mNLRP1b S984A, N-terminal Flag tag (mouse) (UniProt Q2LKW6)
T1 sequence: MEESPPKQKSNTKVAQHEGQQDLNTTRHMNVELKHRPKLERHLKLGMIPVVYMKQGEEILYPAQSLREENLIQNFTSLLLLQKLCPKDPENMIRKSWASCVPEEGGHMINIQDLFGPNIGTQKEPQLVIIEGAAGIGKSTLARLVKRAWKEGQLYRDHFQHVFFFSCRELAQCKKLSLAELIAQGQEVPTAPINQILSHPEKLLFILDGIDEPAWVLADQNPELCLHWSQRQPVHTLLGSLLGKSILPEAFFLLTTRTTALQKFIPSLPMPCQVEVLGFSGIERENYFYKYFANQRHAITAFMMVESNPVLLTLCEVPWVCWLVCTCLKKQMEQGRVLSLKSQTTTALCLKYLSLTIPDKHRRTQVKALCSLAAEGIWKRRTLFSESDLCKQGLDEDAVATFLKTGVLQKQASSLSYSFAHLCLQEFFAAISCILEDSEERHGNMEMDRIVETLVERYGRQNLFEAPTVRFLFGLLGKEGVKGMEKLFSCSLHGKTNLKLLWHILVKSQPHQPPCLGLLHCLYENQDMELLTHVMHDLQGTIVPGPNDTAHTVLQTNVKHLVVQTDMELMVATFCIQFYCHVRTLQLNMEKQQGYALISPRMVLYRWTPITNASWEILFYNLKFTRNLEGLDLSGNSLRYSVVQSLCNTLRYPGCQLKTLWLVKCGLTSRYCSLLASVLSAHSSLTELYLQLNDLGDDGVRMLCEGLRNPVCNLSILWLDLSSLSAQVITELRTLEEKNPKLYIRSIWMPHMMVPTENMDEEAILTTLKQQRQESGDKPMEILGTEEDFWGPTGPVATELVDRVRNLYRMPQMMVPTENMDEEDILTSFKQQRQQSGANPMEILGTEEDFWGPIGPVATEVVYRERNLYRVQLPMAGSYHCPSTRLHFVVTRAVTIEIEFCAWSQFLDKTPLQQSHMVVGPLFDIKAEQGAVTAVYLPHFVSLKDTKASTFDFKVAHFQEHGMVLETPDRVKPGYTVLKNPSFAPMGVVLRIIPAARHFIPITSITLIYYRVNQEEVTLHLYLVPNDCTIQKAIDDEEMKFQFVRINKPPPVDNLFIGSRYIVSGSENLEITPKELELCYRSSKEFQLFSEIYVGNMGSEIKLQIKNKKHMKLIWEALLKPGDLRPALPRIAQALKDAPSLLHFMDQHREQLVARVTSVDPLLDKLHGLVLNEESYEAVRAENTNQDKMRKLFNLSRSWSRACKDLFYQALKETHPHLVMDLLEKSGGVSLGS

T2: wild-type murine NLRP1b, N-terminal Flag tag (mouse) (UniProt Q2LKW6)
T2 sequence: T1 sequence with A984S

T3: FIIND of hNLRP1 (HEK293T construct) (human) (UniProt Q9C000)
T3 sequence: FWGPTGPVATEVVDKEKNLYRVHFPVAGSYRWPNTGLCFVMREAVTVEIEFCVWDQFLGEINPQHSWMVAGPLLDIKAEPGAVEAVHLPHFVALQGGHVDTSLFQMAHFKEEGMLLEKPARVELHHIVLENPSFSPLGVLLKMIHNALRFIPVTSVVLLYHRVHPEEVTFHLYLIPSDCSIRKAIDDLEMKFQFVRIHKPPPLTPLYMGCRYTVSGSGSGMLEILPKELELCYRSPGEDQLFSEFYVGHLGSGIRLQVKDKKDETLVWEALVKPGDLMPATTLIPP

T4: FIIND of mNLRP1b (HEK293T construct) (mouse) (UniProt Q2LKW6)
T4 sequence: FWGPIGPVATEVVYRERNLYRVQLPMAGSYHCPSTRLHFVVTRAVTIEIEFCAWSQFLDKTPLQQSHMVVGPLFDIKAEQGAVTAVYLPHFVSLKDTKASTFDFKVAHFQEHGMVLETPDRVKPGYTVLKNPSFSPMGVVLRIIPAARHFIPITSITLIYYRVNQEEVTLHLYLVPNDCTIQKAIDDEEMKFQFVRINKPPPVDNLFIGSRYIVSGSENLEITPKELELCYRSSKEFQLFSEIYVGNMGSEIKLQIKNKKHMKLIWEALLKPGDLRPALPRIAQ

T5: Linker3 of mNLRP1b (HEK293T construct) (mouse) (UniProt Q2LKW6)
T5 sequence: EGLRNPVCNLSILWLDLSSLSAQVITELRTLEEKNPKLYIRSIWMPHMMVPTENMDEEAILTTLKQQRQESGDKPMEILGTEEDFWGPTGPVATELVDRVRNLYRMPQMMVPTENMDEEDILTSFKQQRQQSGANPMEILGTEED

B1: CARD of mNLRP1b (HEK293T construct) (domain or fragment, UniProt Q2LKW6 1143-1226)
chain: HFMDQHREQLVARVTSVDPLLDKLHGLVLNEESYEAVRAENTNQDKMRKLFNLSRSWSRACKDLFYQALKETHPHLVMDLLEKS

What was measured:
Experiment in all cases: co-IP; HEK293T co-transfected, lysed 48 h later in 50 mM Tris-HCl pH 7.4, 150 mM NaCl, 1% NP-40, 1 mM EDTA, 10% glycerol; IP with anti-Flag M2 agarose 4 h at 4 °C; immunoblot; the NT-CT pairs also in DPP8/9 double-knockout HEK293T (binding unaffected)
[1] = molecular target: T1, cleavage-resistant mNLRP1b S984A, N-terminal Flag tag (mouse)
[2] = molecular target: T2, wild-type murine NLRP1b, N-terminal Flag tag (mouse)
[3] = molecular target: T3, FIIND of hNLRP1 (HEK293T construct) (human)
[4] = molecular target: wild-type CARD8, N-terminal Flag tag (UniProt Q9Y2G2)
[5] = molecular target: cleavage-resistant CARD8 S297A, N-terminal Flag tag (UniProt Q9Y2G2)
[6] = molecular target: CARD8^NT, N-terminal Flag tag (UniProt Q9Y2G2)
[7] = molecular target: FIIND of CARD8 (HEK293T construct) (UniProt Q9Y2G2)
[8] = molecular target: T4, FIIND of mNLRP1b (HEK293T construct) (mouse)
[9] = molecular target: ZU5 of CARD8 (HEK293T construct) (UniProt Q9Y2G2)
[10] = molecular target: T5, Linker3 of mNLRP1b (HEK293T construct) (mouse)

Molecule	binding [1]	binding [2]	binding [3]	binding [4]	binding [5]	binding [6]	binding [7]	binding [8]	binding [9]	binding [10]
dipeptidyl peptidase 9 (DPP9) (from UniProt Q86TI2 1-863) (enzyme)	binds	binds	binds	binds	binds	binds	binds	binds	binds	
B1										no binding
